Out of some 310,000 compounds screened, about 14,000 (4.5%) showed an effect of 50% or more. The effect is printed as a negative number. The list shows a part of the results.
molecular target: human ether-à-go-go-related gene (hERG) potassium channel (human, UniProt Q12809); test: primary screen, population patch clamp on CHO cells stably expressing hERG
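Further: peak tail current of the secondary pulse compared with the same well before compound.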

human ether-à-go-go-related gene (hERG) potassium channel, sequence (Q12809 whole entry, looked up): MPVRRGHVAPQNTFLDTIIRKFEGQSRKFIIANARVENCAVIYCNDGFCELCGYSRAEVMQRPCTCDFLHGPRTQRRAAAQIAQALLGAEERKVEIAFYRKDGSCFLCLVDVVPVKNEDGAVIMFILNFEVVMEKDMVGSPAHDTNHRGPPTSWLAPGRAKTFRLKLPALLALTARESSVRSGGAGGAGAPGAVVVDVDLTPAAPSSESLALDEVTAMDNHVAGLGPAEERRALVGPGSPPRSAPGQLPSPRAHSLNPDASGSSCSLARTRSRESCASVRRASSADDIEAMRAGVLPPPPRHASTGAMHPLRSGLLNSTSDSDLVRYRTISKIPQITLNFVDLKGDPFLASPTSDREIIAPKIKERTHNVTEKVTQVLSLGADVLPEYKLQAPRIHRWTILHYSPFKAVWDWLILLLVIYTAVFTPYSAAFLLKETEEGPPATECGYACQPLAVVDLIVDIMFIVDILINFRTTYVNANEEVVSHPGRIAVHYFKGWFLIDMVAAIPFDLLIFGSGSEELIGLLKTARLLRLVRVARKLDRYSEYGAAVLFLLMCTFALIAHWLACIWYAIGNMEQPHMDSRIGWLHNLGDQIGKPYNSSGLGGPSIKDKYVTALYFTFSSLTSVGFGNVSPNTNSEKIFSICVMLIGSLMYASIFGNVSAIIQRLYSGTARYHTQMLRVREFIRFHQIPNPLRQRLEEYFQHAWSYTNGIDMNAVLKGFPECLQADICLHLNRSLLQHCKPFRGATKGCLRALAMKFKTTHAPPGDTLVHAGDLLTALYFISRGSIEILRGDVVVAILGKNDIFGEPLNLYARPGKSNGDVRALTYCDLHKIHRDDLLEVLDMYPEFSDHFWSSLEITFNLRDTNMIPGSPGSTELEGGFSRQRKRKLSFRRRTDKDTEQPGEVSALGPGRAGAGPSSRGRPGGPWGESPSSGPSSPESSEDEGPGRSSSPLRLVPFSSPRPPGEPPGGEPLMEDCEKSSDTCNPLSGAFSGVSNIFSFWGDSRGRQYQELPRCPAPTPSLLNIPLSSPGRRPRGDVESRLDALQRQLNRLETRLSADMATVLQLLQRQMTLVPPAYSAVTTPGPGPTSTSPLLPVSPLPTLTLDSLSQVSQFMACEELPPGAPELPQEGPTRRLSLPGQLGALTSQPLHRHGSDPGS

Q: How did the “hERG current change (%, negative = inhibition) at 10uM” value turn out when CN(C)c1ccc(/C=N/NC(=O)C2COc3ccccc3O2)o1 (stereo not shown) was run?
A: -4.21%

Q: CCCCCCN(C(=O)CCCCCN1C(=O)NC(c2ccc([N+](=O)[O-])cc2)C(C(=O)OCc2ccccc2)=C1C)C(C(=O)NCCCC)c1ccc(OCC(=O)OC)c(C(=O)OC)c1 (stereo not shown) was tested. Which “hERG current change (%, negative = inhibition) at 10uM” value did it give?
A: -16.6%

Q: With CCOC(=O)C=Nc1c(N)n(C)c(=O)n(C)c1=O as the compound, how does the “hERG current change (%, negative = inhibition) at 10uM” value read?
A: -3.14%

Q: For Cc1nc(SCc2ccc(C(=O)O)cc2)nc2c1CCCC2, which “hERG current change (%, negative = inhibition) at 10uM” value is on record?
A: -2.64%

Q: With CNC1(C(N)=O)CCNCC1 as the compound, how does the “hERG current change (%, negative = inhibition) at 10uM” value read?
A: 7.53%

Q: Which “hERG current change (%, negative = inhibition) at 10uM” value does the source give for CCOC(=O)C1CCCN(CCC(=O)Nc2cc(OC)ccc2OC)C1.Cl (stereo not shown) here?
A: -12.2%

Q: How did the “hERG current change (%, negative = inhibition) at 10uM” value turn out when CC(c1ccc(F)cc1)n1cc(C(=O)NCc2ccccn2)nn1 (stereo not shown) was run?
A: 7.73%

Q: For CCOC(=O)c1c(C)[nH]c(C(=O)COC(=O)[C@H](C)NC(=O)c2ccccc2Cl)c1C, which “hERG current change (%, negative = inhibition) at 10uM” value is on record?
A: -21.8%

Q: How did the “hERG current change (%, negative = inhibition) at 10uM” value turn out when COc1cc2c(cc1OC)C1Cc3ccc(OC)c(OC)c3C[N+]1([O-])CC2 (stereo not shown) was run?
A: 10.8%

Q: Cn1nnnc1SCCOc1ccc(C#N)cc1 was tested. Which “hERG current change (%, negative = inhibition) at 10uM” value did it give?
A: -16.5%

Q: Cc1ccc(F)c(NC(=O)c2ccc(Cn3cc(Cl)cn3)cc2)c1 was tested. Which “hERG current change (%, negative = inhibition) at 10uM” value did it give?
A: 16.5%

Q: For CCN(Cc1ccncc1)C(=O)C1CCC(=O)N(Cc2ccc(Cl)cc2)C1 (stereo not shown), which “hERG current change (%, negative = inhibition) at 10uM” value is on record?
A: -26.8%

Q: How did the “hERG current change (%, negative = inhibition) at 10uM” value turn out when O=C(Cn1nc(Cl)nc1Cl)c1ccc2c(c1)OCCO2 was run?
A: -1.69%

Q: For Cn1nc(C(C)(C)C)c([N+](=O)[O-])c1C(=O)Nc1ccc(Br)cc1, which “hERG current change (%, negative = inhibition) at 10uM” value is on record?
A: 19.8%

Q: How did the “hERG current change (%, negative = inhibition) at 10uM” value turn out when COc1ccc(-n2nc(C(=O)c3cccs3)cc(-c3nc4ccccc4[nH]3)c2=N)cc1 was run?
A: -4.53%

Q: For Cc1[nH]c2ccc(F)cc2c1CCN(Cc1cccnc1)C(=S)Nc1ccccc1, which “hERG current change (%, negative = inhibition) at 10uM” value is on record?
A: -23.5%

Q: For Cc1cc(C)n2nc(-c3ccccc3)cc2n1, which “hERG current change (%, negative = inhibition) at 10uM” value is on record?
A: 5.54%

Q: O=C(O)C1CSC2(c3ccc(F)cc3)CCC(=O)N12 (stereo not shown) was tested. Which “hERG current change (%, negative = inhibition) at 10uM” value did it give?
A: 19.4%

Q: How did the “hERG current change (%, negative = inhibition) at 10uM” value turn out when COc1cc(CCC(=O)Nc2ccc(C)c(S(=O)(=O)N3CCCCCC3)c2)cc(OC)c1OC was run?
A: -6.5%

Q: Which “hERG current change (%, negative = inhibition) at 10uM” value does the source give for O=[N+]([O-])c1ccccc1S(=O)(=O)N1CCN(Cc2cc3c(cc2O)OCO3)CC1 here?
A: 57.4%

Q: CN(C)C(CNC(=O)c1ccc(S(=O)(=O)Nc2cccc(C(F)(F)F)c2)cc1)c1ccco1 (stereo not shown) was tested. Which “hERG current change (%, negative = inhibition) at 10uM” value did it give?
A: -16.9%

Q: For COc1cccc(CNC(=O)N2CCN(c3ccccc3C)CC2)c1, which “hERG current change (%, negative = inhibition) at 10uM” value is on record?
A: -5.7%

Q: How did the “hERG current change (%, negative = inhibition) at 10uM” value turn out when NC(=S)NNC(=O)C12CC3CC(CC(C3)C1)C2 was run?
A: -2.16%

Q: For COc1ccc(CNC(=O)[C@@H]2CC=C[C@@H]3CCN(C4CCCCC4)C(=O)[C@@H]32)cc1, which “hERG current change (%, negative = inhibition) at 10uM” value is on record?
A: -10.3%

Q: How did the “hERG current change (%, negative = inhibition) at 10uM” value turn out when CC(C)C[C@H]1CN=C(N(C)C)N1CCCCc1ccccc1 was run?
A: -64.7%

Q: With COc1ccc(-c2nn(-c3ccccc3)cc2/C=C2/SC(=S)N(CCCC(=O)O)C2=O)c(C)c1 as the compound, how does the “hERG current change (%, negative = inhibition) at 10uM” value read?
A: 26%

Q: COc1cc(N/C=C(\C(C)=O)c2ccccc2)cc(OC)c1 was tested. Which “hERG current change (%, negative = inhibition) at 10uM” value did it give?
A: -8.39%

Q: How did the “hERG current change (%, negative = inhibition) at 10uM” value turn out when COc1ccc(OCCC(=O)OCC(=O)c2ccc[nH]2)cc1 was run?
A: 13.8%

Q: Cc1ccc(S(=O)(=O)Nc2cccc(C(=O)N3CCOCC3)c2)cc1 was tested. Which “hERG current change (%, negative = inhibition) at 10uM” value did it give?
A: 20.7%

Q: CCNC(=S)Nc1ccc(Cl)c([N+](=O)[O-])c1 was tested. Which “hERG current change (%, negative = inhibition) at 10uM” value did it give?
A: -11.7%

Q: With Cc1ccc2nc(C)cc(SCC(=O)N/N=C/c3ccco3)c2c1 as the compound, how does the “hERG current change (%, negative = inhibition) at 10uM” value read?
A: 6.06%

Q: For Cc1ccc2nc3c(cc(C(=O)NCCN4CCOCC4)c(=N)n3CCCN3CCOCC3)c(=O)n2c1, which “hERG current change (%, negative = inhibition) at 10uM” value is on record?
A: -7.16%

Q: With CC(C)(C)NC(=O)COC(=O)c1ccc(S(=O)(=O)N2CCCC2)cc1 as the compound, how does the “hERG current change (%, negative = inhibition) at 10uM” value read?
A: -7.52%

Q: Which “hERG current change (%, negative = inhibition) at 10uM” value does the source give for O=C(CSc1nc2[nH]ncc2c(=O)[nH]1)N1CCCCC1 here?
A: 16%

Q: For Cc1ccc2oc(-c3cccc(NC(=O)Cn4cnc5c(=O)n(C)c(=O)n(C)c54)c3)nc2c1, which “hERG current change (%, negative = inhibition) at 10uM” value is on record?
A: 9.16%

Q: For CC(=O)Nc1c2c(nn1-c1ccccc1C)CS(=O)C2 (stereo not shown), which “hERG current change (%, negative = inhibition) at 10uM” value is on record?
A: 18.7%

Q: Which “hERG current change (%, negative = inhibition) at 10uM” value does the source give for Cc1noc(C)c1S(=O)(=O)N1CCC(C(=O)O)CC1 here?
A: -3.88%

Q: For O=C(COC(=O)c1ccc(F)cc1)NCCc1ccc(F)cc1, which “hERG current change (%, negative = inhibition) at 10uM” value is on record?
A: 4.42%

Q: For Cc1ccc(-c2nnc(CSc3nnc(COc4ccccc4)n3-c3ccccc3)o2)cc1, which “hERG current change (%, negative = inhibition) at 10uM” value is on record?
A: 4.4%

Q: How did the “hERG current change (%, negative = inhibition) at 10uM” value turn out when CN=Cc1cc(-c2ccccc2)sc1O was run?
A: 8.05%

Q: With CC1CCc2[nH]c3ccc(C(=O)N4CCCC(C(F)(F)F)C4)cc3c2C1 (stereo not shown) as the compound, how does the “hERG current change (%, negative = inhibition) at 10uM” value read?
A: 12.2%

Q: For Cc1ccc(S(=O)(=O)N/N=C/c2cccc(OC3CSC3)c2)cc1, which “hERG current change (%, negative = inhibition) at 10uM” value is on record?
A: -9.36%

Q: How did the “hERG current change (%, negative = inhibition) at 10uM” value turn out when N#CC1=C(N)SC(N)=C(C#N)C1c1ccoc1 was run?
A: 7.8%

Q: How did the “hERG current change (%, negative = inhibition) at 10uM” value turn out when CCC1CCCCN1CCCNC(=O)CNC(=O)c1nn(-c2ccc(OC)c(Cl)c2)c(=O)c2ccccc12 (stereo not shown) was run?
A: -39.4%

Q: Which “hERG current change (%, negative = inhibition) at 10uM” value does the source give for O=[N+]([O-])c1ccc(Cl)c(C2Nc3cccc4cccc(c34)N2)c1 here?
A: 8.32%

Q: With O=C(O)/C=C/C(=O)c1ccc(O)cc1 as the compound, how does the “hERG current change (%, negative = inhibition) at 10uM” value read?
A: 2.05%

Q: How did the “hERG current change (%, negative = inhibition) at 10uM” value turn out when O=C(Nc1ccc(C(=O)N2CCCCC2)cc1)Nc1cccc(Cl)c1 was run?
A: 16%

Q: For CCN(CC)C(=O)Cn1cc(S(=O)(=O)CC(=O)N2CC(C)OC(C)C2)c2ccccc21 (stereo not shown), which “hERG current change (%, negative = inhibition) at 10uM” value is on record?
A: -1.49%

Q: For CCc1nn(CC(=O)NCCCN2CCOCC2)c(=O)c2cc3sccc3n12, which “hERG current change (%, negative = inhibition) at 10uM” value is on record?
A: 16.2%

Q: Which “hERG current change (%, negative = inhibition) at 10uM” value does the source give for O=C(c1cc(S(=O)(=O)N2CCCC2)c(Cl)cc1Cl)N1CCCC1 here?
A: -3.95%

Q: With CCN(CCCNC(=O)CCNC(=O)Cn1cnc2ccccc2c1=O)c1cccc(C)c1 as the compound, how does the “hERG current change (%, negative = inhibition) at 10uM” value read?
A: -8.63%

Q: Cc1cc(NC(=O)CSCC(=O)Nc2cc(C(F)(F)F)ccc2N2CCCC2)no1 was tested. Which “hERG current change (%, negative = inhibition) at 10uM” value did it give?
A: 13.7%

Q: How did the “hERG current change (%, negative = inhibition) at 10uM” value turn out when CCOC(=O)N1CCN(C(=O)c2ccc3c(c2)N(Cc2ccc(C)cc2)CCS3)CC1 was run?
A: -20%

Q: With N#Cc1c(N)n(-c2ccccc2)c(=O)c2cc([N+](=O)[O-])ccc12 as the compound, how does the “hERG current change (%, negative = inhibition) at 10uM” value read?
A: 16.9%

Q: With Cc1nc2ccc(NC(=O)c3ccc(F)c(S(=O)(=O)N4CCOCC4)c3)cc2s1 as the compound, how does the “hERG current change (%, negative = inhibition) at 10uM” value read?
A: 2.39%
